Source: a collection of fitness landscapes (doi:10.1126/science.1257360)
The other results are listed elsewhere or left out.

B1: PhoQ; a variant is named by its letters at X, in order, P23837 (parent)
chain: MKKLLRLFFPLSLRVRFLLATAAVVLVLSLAYGMVALIGYSVSFDKTTFRLLRGESNLFYTLAKWENNKLHVELPENIDKQSPTMTLIYDENGQLLWAQRDVPWLMKMIQPDWLKSNGFHEIEADVNDTSLLLSGDHSIQQQLQEVREDDDDAEMTHSVAVNVYPATSRMPKLTIVVVDTIPVELKSSYMVWSWFIYVLSANLLLVIPLLWVAAWWSLRPIEALAKEVRELEEHNRELLNPATTRELTSLVRNLNRLLKSERERYDKYRTTLTDLTHSLKTPLXXLQXXLRSLRSEKMSVSDAEPVMLEQISRISQQIGYYLHRASMRGGTLLSRELHPVAPLLDNLTSALNKVYQRKGVNISLDISPEISFVGEQNDFVEVMGNVLDNACKYCLEFVEISARQTDEHLYIVVEDDGPGIPLSKREVIFDRGQRVDTLRPGQGVGLAVAREITEQYEGKIVAGESMLGGARMEVIFGRQHSAPKDE

Variants of: B1
Assay: enrichment ratio after two sorts for PhoP signalling (ratio (wild type AVST 3.29)); higher = more functional
Conditions: with PhoP (E. coli)

Variant | enrichment ratio
AMKN | ≤ 0.25
QIDF | ≤ 0.25
RYLD | ≤ 0.25
IKHA | ≤ 0.25
WPNH | ≤ 0.25
ITEE | ≤ 0.25
MSCC | 2.48
ERPV | ≤ 0.25
QAFD | ≤ 0.25
TDQW | ≤ 0.25
LGQR | ≤ 0.25
SFTS | ≤ 0.25
YGDP | ≤ 0.25
MHSS | ≤ 0.25
TSMD | 10.7
AKPR | ≤ 0.25
KEIP | ≤ 0.25
FTQL | ≤ 0.25
EVWR | ≤ 0.25
CHHY | ≤ 0.25
PRVW | ≤ 0.25
EMIM | ≤ 0.25
IRDW | ≤ 0.25
PPNP | ≤ 0.25
RVPN | ≤ 0.25

Variant | enrichment ratio
GAPQ | ≤ 0.25
MMQY | ≤ 0.25
IRWM | ≤ 0.25
NLIC | ≤ 0.25
THGS | ≤ 0.25
LEEE | ≤ 0.25
ATDS | ≤ 0.25
SIRL | ≤ 0.25
ILPC | ≤ 0.25
GITK | 16
DFKC | ≤ 0.25
KFAS | ≤ 0.25
TDRH | ≤ 0.25
MYTN | ≤ 0.25
ARLP | ≤ 0.25
RHNW | ≤ 0.25
PTVK | ≤ 0.25
NEFG | ≤ 0.25
LMFM | ≤ 0.25
DWYR | ≤ 0.25
ESIY | ≤ 0.25
IYGK | ≤ 0.25
FIVE | ≤ 0.25
LEDL | ≤ 0.25
WFKS | ≤ 0.25

Variant | enrichment ratio
FFIT | ≤ 0.25
FGQA | ≤ 0.25
MLGL | ≤ 0.25
TGPK | ≤ 0.25
PLLN | ≤ 0.25
VFPF | ≤ 0.25
EHYM | ≤ 0.25
NFKA | 0.542
QNTS | ≤ 0.25
TTGP | ≤ 0.25
FSSP | ≤ 0.25
YGYR | ≤ 0.25
INHC | ≤ 0.25
TNQL | 12.7
RHLI | ≤ 0.25
VYVL | ≤ 0.25
VNDW | ≤ 0.25
GGPP | ≤ 0.25
RNYK | ≤ 0.25
GWQM | ≤ 0.25
HNSG | ≤ 0.25
EHES | ≤ 0.25
QGIT | ≤ 0.25
VYFY | ≤ 0.25
TGCQ | 13.9

Variant | enrichment ratio
QAYV | 12.6
HDNV | ≤ 0.25
HQCW | ≤ 0.25
SNAY | 14.8
MHPN | ≤ 0.25
HSDT | ≤ 0.25
RSEK | ≤ 0.25
HHLC | ≤ 0.25
RWIS | ≤ 0.25
RAKR | ≤ 0.25
GPPP | ≤ 0.25
WHRI | ≤ 0.25
LAAN | ≤ 0.25
KKIP | ≤ 0.25
FPNF | ≤ 0.25
ECEA | ≤ 0.25
MDYI | ≤ 0.25
GDDR | ≤ 0.25
MCTM | 5.19
NDQM | ≤ 0.25
LKCV | ≤ 0.25
GELA | 18.1
GNGT | ≤ 0.25
RDIA | ≤ 0.25
DDFR | ≤ 0.25

Variant | enrichment ratio
PSRL | ≤ 0.25
QYSD | ≤ 0.25
HQWA | ≤ 0.25
ADYP | ≤ 0.25
FRKH | ≤ 0.25
PDNI | ≤ 0.25
VFYN | ≤ 0.25
FRRT | ≤ 0.25
MKSN | ≤ 0.25
TSCD | 9.13
DKIK | ≤ 0.25
EMAI | ≤ 0.25
NWFF | ≤ 0.25
HPQQ | ≤ 0.25
FVHW | ≤ 0.25
MSEL | ≤ 0.25
NQAH | ≤ 0.25
DGPT | ≤ 0.25
FPDS | ≤ 0.25
AQKW | ≤ 0.25
YFAN | ≤ 0.25
SQEG | ≤ 0.25
SFIQ | ≤ 0.25
TNNW | ≤ 0.25
YHST | ≤ 0.25

Variant | enrichment ratio
APCQ | ≤ 0.25
RSVK | ≤ 0.25
QKYF | 4.34
FNDM | ≤ 0.25
AIQW | ≤ 0.25
HCTR | ≤ 0.25
GCGF | ≤ 0.25
IRHY | ≤ 0.25
HSSN | ≤ 0.25
WMRV | ≤ 0.25
ASWV | ≤ 0.25
ALIN | ≤ 0.25
TMHA | ≤ 0.25
HLRS | ≤ 0.25
ALVM | 2.63
KDNF | ≤ 0.25
SNCT | 8.8
MKEF | ≤ 0.25
LPNR | ≤ 0.25
NQIY | ≤ 0.25
TYCR | ≤ 0.25
ILGE | ≤ 0.25
DCIY | ≤ 0.25
DYIE | ≤ 0.25
SHVA | ≤ 0.25

Variant | enrichment ratio
NFMS | ≤ 0.25
TSHP | ≤ 0.25
IEPC | ≤ 0.25
SNET | ≤ 0.25
LSAM | ≤ 0.25
VQYH | ≤ 0.25
ALNN | ≤ 0.25
SCNW | ≤ 0.25
HETV | 4.78
YLTR | ≤ 0.25
MIPM | ≤ 0.25
LNTF | ≤ 0.25
ARPI | ≤ 0.25
IVVK | ≤ 0.25
AEFS | 19
DEQV | ≤ 0.25
WHFR | ≤ 0.25
RNEG | ≤ 0.25
ALKH | ≤ 0.25
LTSL | ≤ 0.25
MKLS | ≤ 0.25
SEPL | ≤ 0.25
LEME | ≤ 0.25
NDWN | ≤ 0.25
MKWT | ≤ 0.25

Variant | enrichment ratio
PCGC | ≤ 0.25
DTTV | ≤ 0.25
AMGW | ≤ 0.25
NPVK | ≤ 0.25
RNAK | ≤ 0.25
TSTR | ≤ 0.25
VCIH | ≤ 0.25
PMTC | ≤ 0.25
LMCT | ≤ 0.25
QVLT | ≤ 0.25
TTDE | ≤ 0.25
ICWC | ≤ 0.25
TLEA | ≤ 0.25
RITE | ≤ 0.25
PKRR | ≤ 0.25
EIFV | ≤ 0.25
SGYV | ≤ 0.25
SPLN | ≤ 0.25
SLHK | ≤ 0.25
TNCG | ≤ 0.25
